Measurements: the supplement of paper PMC12217912
Some of the results follow. Sequences were assembled here from the parent chain. Values near 0.05 are background.

B1: TEV protease; numbered along this chain (parent)
chain: MGESLFKGPRDYNPISSSICHLTNESDGHTTSLYGIGFGPFIITNKHLFRRNNGTLVVQSLHGVFKVKDTTTLQQHLVDGRDMIIIRMPKDFPPFPQKLKFREPQREERICLVTTNFQTKSMSSMVSDTSCTFPSGDGIFWKHWIQTKDGQCGSPLVSTRDGFIVGIHSASNFTNTNNYFTSVPKNFMELLTNQEAQQWVSGWRLNADSVLWGGHKVFMVKPEEPFQPVKEATQL

Variants of: B1
Test: raw area under fraction-flipped curve 0-4 h after induction (AUC4h, not background-subtracted), DNA-recorder readout of cleavage of the substrate (dimensionless); higher = more cleavage of the substrate by the protease variant
Settings: temperature: 34 °C; time window: 0-4 h after rhamnose induction
Procedure: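 In vivo DNA recorder in E. coli TOP10(DE3) ΔrhaA at 34 °C. Each TEVp single-site mutant (parent TEVp 0) is paired with a single-site variant of the 7-mer TEVs (canonical ENLYFQ|S). The substrate sits between flexible linkers in a Bxb1-sfGFP-TEVs-SsrA fusion, so cleavage stabilises Bxb1 and speeds flipping of a recombination array, read by NGS. The value is the raw area under the fraction-flipped curve over 0-4 h after rhamnose induction (AUC4h), with ≥20 reads per time point. It is not background-subtracted; inactive controls average about 0.047.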
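Note: Bxb1 expression induced with 0.2% (w/v) L-rhamnose at OD600 near 0.5, cultures sampled hourly, flipped fraction per protease–substrate barcode pair counted by paired-end Illumina sequencing.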

| Variant | area with substrate ENLYAQS | area with substrate ENLYCQS | area with substrate ENLYGQS | area with substrate ENLYHQS | area with substrate ENLYIQS | area with substrate ENLYMQS | area with substrate ENLYNQS | area with substrate ENLYSQS | area with substrate ENLYWQS | area with substrate ENLYDQS | area with substrate ENLYEQS | area with substrate ENLYKQS | area with substrate ENLYLQS | area with substrate ENLYRQS | area with substrate ENLYTQS | area with substrate ENLYVQS | area with substrate ENLYPQS | area with substrate ENLYQQS | area with substrate ENLYYQS |
| --- | --- | --- | --- | --- | --- | --- | --- | --- | --- | --- | --- | --- | --- | --- | --- | --- | --- | --- | --- |
| N206T | 0.0798 | 0.0869 | 0.0592 | 0.0447 | 0.12 | 0.0873 | 0.0734 | 0.0584 | 0.0654 |  |  |  |  |  |  |  |  |  |  |
| G63D | 0.0549 | 0.0844 |  | 0.0482 | 0.111 | 0.082 | 0.0676 |  | 0.0678 | 0.0592 | 0.0598 | 0.0347 | 0.0642 | 0.0782 | 0.0939 | 0.108 |  |  |  |
| D27T | 0.0801 | 0.103 | 0.0546 | 0.0593 | 0.0864 | 0.0707 | 0.0719 |  | 0.0694 | 0.0644 | 0.071 | 0.0704 |  | 0.0557 |  | 0.0871 | 0.0455 | 0.0439 |  |
| I164P | 0.066 | 0.0294 | 0.0665 | 0.0541 | 0.0309 | 0.0513 | 0.0583 | 0.0616 | 0.049 | 0.0553 | 0.0544 | 0.0494 |  | 0.0613 | 0.0616 | 0.0616 | 0.0508 |  | 0.0556 |
| E107M | 0.0607 |  |  | 0.069 |  | 0.0673 | 0.0783 | 0.0681 | 0.0811 | 0.0583 | 0.068 | 0.0536 |  |  | 0.0664 | 0.103 | 0.062 | 0.0598 | 0.0593 |
| M122H | 0.0787 |  |  | 0.0695 | 0.107 | 0.0935 | 0.0617 |  | 0.0694 | 0.0735 | 0.063 |  | 0.0962 | 0.0607 |  | 0.135 | 0.0729 |  |  |
| P9G | 0.075 |  | 0.0591 | 0.0755 | 0.103 | 0.0877 | 0.0794 | 0.0758 | 0.0859 | 0.0652 | 0.0774 | 0.0579 | 0.0736 | 0.0695 |  |  | 0.0616 |  | 0.0786 |
| K148I | 0.0718 |  | 0.0661 | 0.0575 | 0.112 | 0.0778 |  | 0.0689 | 0.109 | 0.0737 |  | 0.0657 | 0.084 |  | 0.0479 | 0.0874 | 0.0605 | 0.0649 | 0.0616 |
| K68E | 0.0875 |  | 0.0838 | 0.0907 | 0.138 | 0.0726 | 0.0561 |  |  | 0.0744 | 0.0641 | 0.073 |  | 0.0752 |  | 0.121 | 0.0748 | 0.0694 | 0.0694 |
| N53I | 0.0748 |  | 0.0682 | 0.081 | 0.079 |  | 0.066 | 0.0649 |  | 0.0553 | 0.0667 | 0.0813 |  | 0.0526 |  | 0.0892 | 0.0565 | 0.0588 | 0.0653 |
| K230L | 0.0662 |  | 0.0691 | 0.0647 | 0.117 | 0.0851 |  | 0.0625 | 0.0742 |  | 0.0678 |  | 0.0787 | 0.0496 |  |  | 0.0643 | 0.0525 | 0.0383 |
| F65T | 0.07 | 0.005 | 0.044 | 0.0669 |  | 0.0852 | 0.0687 | 0.0653 |  | 0.0653 | 0.0637 |  | 0.0758 |  | 0.0685 | 0.116 |  | 0.0564 |  |
| T30G | 0.0841 |  | 0.0558 | 0.0576 | 0.124 | 0.0684 |  | 0.0572 | 0.0889 | 0.0671 | 0.0632 | 0.0478 |  |  | 0.0739 | 0.113 | 0.0692 | 0.0566 | 0.0667 |
| R106W | 0.0676 | 0.0791 | 0.0692 | 0.067 | 0.109 | 0.079 | 0.0703 | 0.0817 | 0.0937 | 0.0692 | 0.0595 | 0.0576 | 0.0846 | 0.0566 | 0.0718 | 0.0724 | 0.0673 | 0.0679 | 0.0794 |
| T55Y | 0.0669 |  | 0.0691 | 0.0691 | 0.106 | 0.0868 | 0.0605 | 0.0664 | 0.0854 | 0.0658 | 0.107 | 0.069 |  | 0.0548 |  |  | 0.0776 |  | 0.0462 |
| S169R | 0.0623 |  |  | 0.0553 | 0.0606 | 0.081 | 0.0667 | 0.0654 | 0.0687 | 0.0773 | 0.0722 | 0.0564 | 0.0738 | 0.0625 | 0.0775 | 0.0667 | 0.0801 |  |  |
| S124D | 0.0524 |  |  | 0.0682 | 0.12 | 0.0798 | 0.0634 |  |  |  | 0.0682 | 0.0546 |  | 0.0802 |  | 0.115 | 0.0633 |  |  |
| I36L | 0.0629 |  | 0.0788 | 0.0636 | 0.131 | 0.1 | 0.0734 | 0.0707 | 0.0826 | 0.056 | 0.0714 | 0.0663 |  | 0.0773 |  | 0.118 | 0.0886 |  |  |
| E103W | 0.0628 | 0.0791 | 0.0625 | 0.0615 | 0.0863 | 0.0594 | 0.0708 | 0.0739 | 0.057 | 0.0517 | 0.0604 | 0.0482 | 0.0748 | 0.0561 | 0.0794 | 0.0848 | 0.0705 | 0.0658 | 0.0709 |
| S60E | 0.0557 |  | 0.0586 | 0.0577 | 0.0709 | 0.0646 | 0.0437 | 0.0486 | 0.0537 | 0.0586 | 0.0392 | 0.0876 |  |  | 0.0463 |  | 0.0518 | 0.0455 | 0.0551 |
| W212D | 0.0616 | 0.0669 | 0.0528 | 0.0562 |  |  |  | 0.0483 | 0.0563 | 0.0525 |  | 0.0114 | 0.0685 | 0.0706 |  | 0.0515 | 0.0565 | 0.0592 | 0.108 |
| K7Q | 0.0679 | 0.0732 | 0.0787 | 0.0443 | 0.117 | 0.071 | 0.0688 |  | 0.0873 | 0.0757 | 0.0826 | 0.0594 |  | 0.06 | 0.0799 |  |  | 0.081 | 0.0631 |
| A196I | 0.0773 | 0.0951 |  | 0.0603 |  | 0.0911 | 0.0708 | 0.0696 | 0.0853 | 0.0557 | 0.0695 | 0.0652 | 0.0782 | 0.0563 |  | 0.11 | 0.0756 | 0.0454 | 0.0647 |
| I42N | 0.0428 | 0.0277 | 0.0556 | 0.0317 | 0.0536 | 0.0412 | 0.0445 | 0.0198 | 0.0481 | 0.0423 | 0.0537 | 0.048 |  |  |  |  | 0.0369 | 0.0468 |  |
| D79I | 0.0823 |  |  |  | 0.0977 | 0.0787 |  |  | 0.0637 |  |  | 0.03 |  | 0.0567 | 0.0633 |  |  | 0.0473 | 0.0553 |
